The values below come from patent US20250382384A1 (BEONE MEDICINES I, published 2025).

The target in test [1] is HMFG1. The test is described as follows: competitive FACS: soluble MUC1 titrated against 3 µg/ml antibody binding to human MUC1 expressing cells.
Test [2] concerns the target HMFG1. Nature of the test: competitive FACS: soluble MUC1 titrated against 0.3 µg/ml antibody binding to human MUC1 expressing cells.
Test [3] has as its target HMFG1. The test is described as above. The source holds these as a separate data set.

Chain of HMFG1 (VH, as listed by the source, chain 1 of 2): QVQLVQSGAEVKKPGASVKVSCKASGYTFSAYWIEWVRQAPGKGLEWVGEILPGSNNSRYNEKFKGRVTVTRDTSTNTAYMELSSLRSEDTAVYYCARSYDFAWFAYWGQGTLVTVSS
Chain of HMFG1 (VL, as listed by the source, chain 2 of 2): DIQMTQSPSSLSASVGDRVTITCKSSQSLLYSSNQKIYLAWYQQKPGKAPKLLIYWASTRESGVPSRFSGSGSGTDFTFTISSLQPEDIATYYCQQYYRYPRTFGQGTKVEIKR

B1: soluble MUC1 (Shanghai Linc-Bio Science Co. LTD) (other)
chain: not shown
Turning to B1, the “IC50 (read off the curve)” value with HMFG1 [1] is roughly 30 U/mL; in the test with HMFG1 [2], roughly 5 U/mL; with HMFG1 [3] it was roughly 5 U/mL.
